# ± gives the standard deviation of the averaged measurements. The list shows a part of the results.
# System: PfAP2-EXP AP2 domain (GST-tagged)
# Experiment: gcPBM binding intensity (ln(normalized median fluorescence intensity)); higher = stronger DNA binding
# In short: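 Each value is the highest Masliner-normalised natural-log median intensity across replicate spots of either orientation of a probe. The probes were primer-extended double-stranded 36-bp intergenic genomic sequences on an Agilent 4 × 180k array, alongside negative controls, exposed for 1 h to GST-tagged P. falciparum DNA-binding domains expressed in E. coli. Bound protein was picked up with Alexa488 anti-GST antibody and scanned at 488 nm.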
row,Sequence,gcPBM binding intensity (ln)
1,ACCATTTTTATGTATAAACACACGTACCCGCACTAA [CACACA_site1604],8.78 ± 0.35
2,AAAAAAAACAGACACATACACACAAAAATGTTATAA [CACACA_site82],8.46 ± 0.49
3,TGGAGATTTTTAAAGACACACAGGTAAGAATAATAA [CACACA_site1582],8.81 ± 0.46
4,AATATATAAATTGACACACACATATATACCTATATA [CACACA_site4803],8.51 ± 0.37
5,CACAATGGTTTATATACACACTGTTGCAAATTCTTC [CACACA_site5659],8.59 ± 0.61
6,AATATAAACACAAACACACACATATAGATTTATATA [CACACA_site6263],8.55 ± 0.38
7,ATTATGCACGGACACACACACACACCCCTAAAAAAT [CACACA_site5426],9.28 ± 0.25
8,TGTTAACCACAAAAATAAAATAAAATAAAAATAATA [XGTACX_negctrl_site535],8.38 ± 0.33
9,TATGCTATTATATATGTACACACCAATTTATTTATA [CACACA_site3918],8.79 ± 0.32
10,TTTCCCATAGGAAAAACACACATATATTATAGATAA [CACACA_site7019],8.24 ± 0.61
11,TGATAAATATTATGTTGTACTTTCTGCCCTTCACAT [XGTACX_site5168],8.76 ± 0.35
12,TTTTGATGCTTTAAATGTACAAGGGTTCTTATGAAA [XGTACX_site831],8.35 ± 0.4
13,GAAAAAAAAAGTTAAGCACACACATGAATAAATAAT [CACACA_site8179],8.9 ± 0.47
14,GAGAGAGAAATATGCACACATAAGGGAAATAAATAA [CACACA_site1153],8.77 ± 0.3
15,AAAAAAAAAAAATAGAAAAAAAAATAAAATAAAAAA [CACACA_negctrl_site562],8.21 ± 0.46
16,TGTATATAATTTATATGTACATATATTTTATTTTGT [XGTACX_site1905],8.56 ± 0.26
17,AAACCAAAAATAACACGTACAAAAATAAAAAGTATA [XGTACX_site4261],9.04 ± 0.4
18,AAAACATATTTTAAAAGTACTTGAAAAAAAATTTTC [XGTACX_site3940],8.22 ± 0.25
19,TATATATATATATGTGCACACCAATTGTATGTAATA [CACACA_site3888],10.1 ± 0.33
20,AATATAAAATCAAGAAATTAAAAAAAAACAGAAAAC [CACACA_negctrl_site1004],8.93 ± 0.49
21,ACAAGATAATAGAGAAGTACTAATAAACATACACAA [XGTACX_site6617],8.94 ± 0.35
22,TCATAAAAGATTAAGTGTACATGTGCTACTCTTATA [XGTACX_site6255],8.34 ± 0.25

row,Sequence,gcPBM binding intensity (ln)
1,TATGTTCCTTTTTGTTGTACTGAAAAATTATGTTCA [XGTACX_site3981],8.93 ± 0.23
2,ATAATATAAATTAATTTACACACTAATAAATATATA [CACACA_site9259],8.43 ± 0.33
3,ATTTTAAATTTATCTGTGCACAGTATTATATAAGCA [GTGCAC_site9806],8.73 ± 0.3
4,TATATATATATATATAGTACGCACACATAGTTGCAA [XGTACX_site5875],10.1 ± 0.43
5,TATTTTTTATGATTAACACACACACTAATAAAAAAA [CACACA_site9370],8.71 ± 0.39
6,ATTCTTACTAATATCGCACACACATATGTAGACGGG [CACACA_site88],9.01 ± 0.57
7,AATGAATATATTTATTGTACATATATGAATATTGCA [XGTACX_site8689],8.69 ± 0.37
8,ATTTTTTTATTTTTGTGTACTTATAAGAATATTAAT [XGTACX_site4850],8.75 ± 0.34
9,AAAAAAAAAAAAAAAAGTACAAAAAGGAGAAAGATA [XGTACX_site7862],8.9 ± 0.47
10,AGGTTTATAAAAAAAAAAAAAAAAAAAAAAAAAAAA [GTGCAC_negctrl_site113],7.89 ± 0.33
11,ACCCAGTGTATTCATAGTACACGCTCATATATTATC [XGTACX_site423],8.69 ± 0.41
12,AATATTTAAAACATATGTACTGAAAAACAATTGGAC [XGTACX_site6360],9.12 ± 0.38
13,CACAAAGGTCTGAAATTTTAGGGGTGCCTGGGACTA [CACACA_negctrl_site681],8.28 ± 0.47
14,AACAAGTTGCATGGTGCACACATGTATATATATCTA [CACACA_site2548],9.21 ± 0.21
15,TACAATTTTACTCATAAACACACATATATATGTTAT [CACACA_site9031],8.53 ± 0.36
16,AAAATGTATGTAGTCTGTACAAATACTCTATAAATA [XGTACX_site6475],8.4 ± 0.43
17,AATACTATTATTATTGCACACTTATTATCCCTCGGA [CACACA_site4262],8.65 ± 0.28
18,TATCCATTTCTTTATGTGCACATTAAATATATTTGT,9.205 ± 0.064
19,TATAAAAATATTTCTACACACATTAATATATATATA [CACACA_site1150],9.49 ± 0.22
20,AATATATAGAGAGATATGCACACTGTATGAATGCAC [CACACA_site2677],8.58 ± 0.014
21,TATATTAATAATAAGTGTACATATATATATATTTTT [XGTACX_site288],8.36 ± 0.3
22,ATTTGTAAAAAATTCATACACACGTCTTATTTTTAA [CACACA_site1390],8.29 ± 0.41

row,Sequence,gcPBM binding intensity (ln)
1,AATGAGAAATATAATTGTACATATATTTATTTTCAT [XGTACX_site3669],8.24 ± 0.33
2,TATTTTTTCTTTCATTGTACTTTTTTTTTGTTTTGT [XGTACX_site4081],8.77 ± 0.47
3,AAAAAATTAATATTGACACACATTTTTAAGAATAAT [CACACA_site239],8.22 ± 0.47
4,AAACAAAAAATTTAAAGTACAAAAATTATGATTGTT [XGTACX_site465],8.54 ± 0.54
5,AATATGTCTATATTTTTTATATGGAAATATTATAAA [GTGCAC_negctrl_site700],7.92 ± 0.39
6,CAAAAGGATAGGCACACACACACACCCATATATATA [CACACA_site2199],8.8 ± 0.49
7,TTTTTTTTTTTTTTTTTTTTTTTATCTATTATTTAT [XGTACX_negctrl_site496],8.05 ± 0.23
8,TATTTATATTTATATACACACATACATATTTATATT [CACACA_site6535],8.41 ± 0.33
9,TCTTAATTTGTTATATGTACATAATATAATTGTATA [XGTACX_site5184],8.59 ± 0.33
10,TATTTTGTAATAATTACACACGGAATTATAACAGAA [CACACA_site2355],8.69 ± 0.43
11,ATATATATATTTATATTTATATGTAAATATCAACGT [TGCATGCA_negctrl_site32],9.24 ± 0.057
12,TTATATTAATAAAAAGAAAATCATTTTTTCTTTTAT [CACACA_negctrl_site1595],7.96 ± 0.39
13,AATATTATGTATAACCGTACATTATATATATAATAA [XGTACX_site1594],8.38 ± 0.4
14,ATTGTGTTAATGAAATGTACATTTTCTCTACGTTAA [XGTACX_site1322],8.8 ± 0.52
15,TCCTACATATTATAGTGTACATTTTCATGTTCATAT [XGTACX_site4308],8.62 ± 0.39
16,AAGTATTATATATTTTGTACATATATAAAACCACAA [XGTACX_site5508],8.44 ± 0.38
17,ATTAAAATAATTTAATTTCTTAGACACAATTTGTAA [GTGCAC_negctrl_site331],8 ± 0.53
18,GTGTAAAGGTATTATTGTATTATTCAAAATAAAAAA [CACACA_negctrl_site637],8.29 ± 0.39
19,TTAAACTTGTTTTGGATGCACTATATAATTCATTTT [GTGCAC_site9549],8.31 ± 0.3
20,ACAGAATACATATACACACATACAAAAAAGTGCATA [CACACA_site987],8.71 ± 0.39
21,CATTATGTTGTAAATGCACACATACATATACACAGT [CACACA_site8990],8.71 ± 0.16
22,TCATACTGTATATTTTGTACTTATATATATATTATA [XGTACX_site6136],8.81 ± 0.34

row,Sequence,gcPBM binding intensity (ln)
1,ATAATAAGCAAACACACACACACAAAAAAAAAAAAA [CACACA_site720],8.36 ± 0.52
2,TTATTTTGTTTTAAAAGTACACACTTTTAATTAGAT [XGTACX_site2271],8.36 ± 0.29
3,TATATAAACACGTACACACACATATAGGTATTTATA [CACACA_site7615],8.71 ± 0.49
4,AAAAGATTGCTCCGCATGCACCTCCAAAAGTTCCTT [GTGCAC_site9993],9.1 ± 0.21
5,TACAAAAGCGATACGGCACACATTTCCTGTTTAAAT [CACACA_site2746],8.74 ± 0.33
6,TTTGCTTCCAAAAGTCGTACAAAAAATATTAAATAT [XGTACX_site4171],8.58 ± 0.23
7,TATACATATAAATTGTGTACACATATATATATATTT [XGTACX_site7875],8.73 ± 0.22
8,TATCAAAATTAGTATACACACAAAATTATTCAAATA [CACACA_site2232],8.2 ± 0.42
9,TAAAAGGAAAAAAAAGCACACACAATATTACTTGAA [CACACA_site8831],8.57 ± 0.51
10,AATATATAAATTAATACATGCACATATAGAAAGGGA [TGCATGCA_site472],9.35 ± 0.32
11,CTTTTTACTTAATACACACACACACTAGAAAAAAAA [CACACA_site4680],8.84 ± 0.62
12,CTTTTCTTTTTTTTTTGTACATAAAATTATTCCTTA [XGTACX_site3924],8.7 ± 0.44
13,TTTTGTTGCTCTTTTTTTTTTTTTTTTAACTGTATG [CACACA_negctrl_site1072],8.57 ± 0.43
14,AATATAGTCACACATACACACATATAGATTTATATA [CACACA_site7223],8.48 ± 0.42
15,AAAAAAAAAAAAAGGTGTACATAAGTAAATTCATAT [XGTACX_site4206],8.7 ± 0.54
16,AACCAATATGTGTATACACACATAAATATAAATATA [CACACA_site7729],8.41 ± 0.31
17,TACAAACACCCATATACACACAAAAAAAAAATAAAA [CACACA_site5421],8.4 ± 0.59
18,AGAAAAACTTATATGATACACACGATAAACAAAATA [CACACA_site1038],8.72 ± 0.59
19,TATATAATATATATATGTACATATATATATGTTTTT [XGTACX_site3347],8.32 ± 0.2
20,TATACATAAAACAGTTCACACATTGTATGAATATAT [CACACA_site4751],8.54 ± 0.57
21,TACGTATTTTAATATTTACACACTTATTTTTTATAT [CACACA_site7924],8.78 ± 0.44
22,TTGTTTCTTTTTTTTTGTACATATATATTGTATATT [XGTACX_site7602],8.86 ± 0.6

# Source: the supplement of paper PMC11417369
